# Values joined by “and” are separate entries in the source; they are usually repeats but may differ in a detail not shown here. Equal entries are not always repeated. About 1,800 (2.5%) of roughly 71,000 compounds were called active. Inconclusive means that the source gave no clear call. Such entries were picked first, then a sample of the others. Calls follow the shape of the dose curve; as a rule, active = well fitted activation curve with a large enough effect in the signal ratio, with a control signal flat (not every such curve was filed as active); inconclusive = small, poorly fitted or top-dose-only effect, or effect the other way, or a change in a side signal; inactive = flat fitted curve, though single readings scatter; the % refers to the signal ratio. Potencies beside an inconclusive call are fits to weak or partial responses and may not hold up.
# Assay: Cell signaling CRE-BLA (Fsk stim); as to activity change, negative = inhibition: % of control where 0% means no effect
# Conditions: CHO CRE-bla reporter (cAMP response element driving beta-lactamase), forskolin EC10, beta-lactamase ratio; activity change, negative = inhibition: at 38.2 µM (top of the series) unless noted
# Method in brief: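 CRE-bla CHO reporter cells treated with compound titration plus EC10 NKH 477 (water-soluble forskolin), incubated 3 h at 37 °C; CCF4 loading 2 h at room temperature, 460/530 nm emission ratio read, AC50 values derived for positive or negative modulators.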
# Potency is read from the fitted curve at half-maximal effect; tags tell the direction and shape of the fitted curve.
SMILES,Potency,"activity change, negative = inhibition"
CN(C)S(=O)(=O)c1ccc(C(=O)OCC(=O)c2ccc(OC(F)F)cc2OC(F)F)cc1,"inconclusive: 5.01 µM [rising, full curve, poor fit]",–
Cc1ccc(N=Nc2c(O)ccc3cc(S(=O)(=O)O)ccc23)cc1,–,inactive: -9.77% [at 7.6 µM]
COC(=O)c1ccccc1Nc1cc(C)nc2nc(C)nn12,active: 12.6 µM,–
CC(=O)c1cc(C)ccc1OC(=O)c1ccco1,–,inactive: -5.6%
CCN(CC)S(=O)(=O)c1ccc(F)c(C(=O)NCCCN2CCOCC2)c1,–,inactive: 7.31%
Cn1nccc1C(=O)OCC(=O)Nc1nc(-c2ccccc2)cs1,–,inactive: -5.53%
O=C(CCc1ccccc1)Nc1ccc(Cl)cn1,–,inconclusive: 8.86%
COCCCN1C(=O)C(=O)/C(=C(/O)c2ccc(OCC(C)C)cc2)C1c1cccnc1 (stereo unspecified),–,inactive: -8.46%
COC(=O)c1ccc2c(c1)NC(=O)C1CCCN21 (stereo unspecified),–,inactive: 23.5%
O=C(CCCC(=O)N(CC(=O)NC1CCCC1)Cc1ccccc1)Nc1ccccn1,–,inconclusive: -11.8%
CCCN1CN(Cc2ccco2)c2nc3ccccc3n2C1,–,inconclusive: 16.4%
Cc1ccccc1Cn1ccc(NC(=O)CCSc2nc(-c3ccco3)cc(C(F)(F)F)n2)n1,–,inactive: 7.4%
O=C(Cn1nnc(-c2ccncc2)n1)N(C1CCCCC1)C1CCCCC1,–,inactive: -21.7%
CCOC(=O)c1ccc(CSc2nnc(N)s2)cc1,–,inactive: -2.54%
COc1cccc(NC(=O)NC2(C(F)(F)F)Oc3ccccc3O2)c1,–,inconclusive: -26.2%
CCN(CC)CCCNC(=O)N[C@@H](Cc1ccccc1)C(=O)O,–,inconclusive: 7.04%
O=C(c1ccc2c(c1)OCCO2)N(c1ccccn1)C1CCCCC1,–,inconclusive: -2.38%
COc1ccccc1OCc1ccc(C(=O)Nc2ccncc2)o1,–,inactive: 11.5%
CCn1c(SCC(=O)Nc2ccc(C(=O)OC)cc2)nnc1-c1cccs1,–,inconclusive: 12.8%
COc1ccc(C(=O)NCCc2ccc(S(N)(=O)=O)cc2)cc1OC,–,inconclusive: -12.7% [at 7.6 µM]
O=C(NCCN1CCN(Cc2ccccc2)CC1)C1CC(=O)N(C2CCCC2)C1 (stereo unspecified),–,inactive: -11.8%

SMILES,Potency,"activity change, negative = inhibition"
Cc1ccc(C(=O)Nc2ccc3c(c2)OCO3)o1,–,inactive: -8.59%
CCCCn1c2nc3ccccc3nc2c2c(=O)n(C(C)CC)cnc21 (stereo unspecified),–,inconclusive: 27.8%
CCOC(=O)c1ccc(NC(=O)CN2CCN(CCN=CC3=C(O)CC(C)(C)CC3=O)CC2)cc1,–,inactive: -2.14%
CCc1ccc2c(CN3CCN(S(=O)(=O)c4ccc5c(c4)OCCO5)CC3)cc(=O)oc2c1,–,inconclusive: -0.684%
COc1ccc(OC)c(S(=O)(=O)N2C(C)CCCC2C)c1 (stereo unspecified),–,inconclusive: 4.58%
Clc1cccc(N2CCN(Cc3nc(-c4ccccc4)no3)CC2)c1,–,inconclusive: -13.7%
CC(C)C(c1nnnn1CC1CCCO1)N1CCN(Cc2ccc3c(c2)OCO3)CC1 (stereo unspecified),–,inactive: 6.41%
CCN(CC)C(=O)Oc1ccc(NC(C)=O)cc1,–,inconclusive: 4.34% [at 7.6 µM]
CCN(Cc1cc2ccccc2[nH]c1=O)S(=O)(=O)c1ccccc1,"inconclusive: 15.8 µM [rising, partial curve]",–
CCCn1c(SCC(=O)N2CCN(c3ccc(OC)cc3)CC2)nc2c1c(=O)n(C)c(=O)n2C,"inconclusive: 12.6 µM [rising, partial curve]",–
O=C(COc1ccc(Cl)cc1Cl)NC(=O)N1CCCCC1,–,inconclusive: 21.9%
CCn1cc(C(=O)NCc2ccc3c(c2)OCO3)c(=O)c2cc(F)c(N3CCN(C)CC3)cc21,–,inconclusive: 29.6%
CCOc1ccc(-c2nc(N)nc(C)c2-c2ccc(OC)c(OC)c2)c(O)c1,"inconclusive: 7.94 µM [rising, partial curve]",–
CCCN(C(=O)CSc1nnc(-c2ccoc2C)n1N)C1CCS(=O)(=O)C1 (stereo unspecified),–,inconclusive: -19.9%
Cc1ccc(C)c(S(=O)(=O)N2CCN(CC(=O)NC(=O)NCc3ccccc3)CC2)c1,–,inactive: -14%
COc1ccc2nc3c(c(-c4ccccc4)c2c1)CCC3,active: 10 µM,–
COc1ccc(-c2cc(C(F)(F)F)n3nc(C(=O)N4CCOCC4)c(Cl)c3n2)cc1,"inconclusive: 5.01 µM [rising, single point]",–
Cn1cccc1Cc1nnc(SCC(=O)Nc2ccc3c(c2)OCCO3)n1-c1ccc(F)cc1,–,inconclusive: -11%
c1ccc(Nc2cc(Nc3ccccc3)[nH]n2)cc1,–,inconclusive: -10.7%
Cc1noc(C)c1C(=O)OCC(=O)c1c[nH]c2ccccc12,"inconclusive: 5.01 µM [falling, single point]",–
COCCn1c(=O)c(-c2ccc(Cl)cc2)nc2cnc(Nc3ccccc3)nc21,"inconclusive: 0.501 µM [rising, full curve]",–

SMILES,Potency,"activity change, negative = inhibition"
CCOC(=O)C1CCCN(CC(=O)Nc2c(C(=O)OC)[nH]c3ccc(Cl)cc23)C1 (stereo unspecified),"inconclusive: 12.6 µM [rising, single point]",–
Cc1ccc(C(=O)Nc2c(C(=O)N3CCOCC3)cnn2-c2ccccc2)cc1,"inconclusive: 0.794 µM [rising, partial curve]",–
Cc1coc(NC(=O)CSc2nc(-c3ccncc3)cc(C(F)(F)F)c2C#N)n1,–,inactive: 16.1%
OCCN(Cc1ccccc1)Cc1ccc(F)c(F)c1,–,inconclusive: 4.03% [at 7.6 µM]
COc1ccc(NC(=O)CSc2nc3ccccc3c(=O)n2-c2ccc3c(c2)OCO3)c(OC)c1,active: 3.98 µM,–
CCOC(=O)C1=C(C)NC2=C(C(=O)CC(c3ccc(OC)c(OC)c3)C2)C1c1ccc(C)o1 (stereo unspecified),–,inconclusive: 27.2%
CCOC(=O)c1ccc(CC(=O)c2oc3cc(O)ccc3c2C)o1,"inconclusive: 5.01 µM [falling, single point]",–
COc1ccc(OC)c(C2C3=C(CCCC3=O)Nc3nc4ccccc4n32)c1 (stereo unspecified),–,inconclusive: 5.97%
FC(F)(F)c1ccccc1-c1nccc(-n2ccnc2)n1,–,inconclusive: 11.5%
COc1ccc(OCc2nc(C#N)c(N3CCN(c4ccc(OC)cc4)CC3)o2)cc1,–,inconclusive: 27.5% [cytotoxic]
Cn1c(NCc2ccccc2)cc(=O)n(C)c1=O,–,inconclusive: 6.3%
CCOC(=O)CN1C(=O)C(O)(c2c(C)[nH]c3ccccc23)c2ccccc21 (stereo unspecified),–,inconclusive: -17.4%
COc1ccc(NC(=O)Nc2ccc3nccnc3c2)cc1,–,inconclusive: 8.25% [at 7.6 µM]
COc1ccc(OC)c(NC(=O)Cn2cc(C#N)c3ccccc32)c1,"inconclusive: 0.631 µM [falling, single point]",–
Cc1cccc(CNc2ccnc(-c3ccc(C(=O)N(C)C)cc3)n2)c1,–,inconclusive: 12.8%
COc1cc2ncnc(Nc3cccc(Cl)c3)c2cc1OC,"inconclusive: 15.8 µM [rising, partial curve] and inconclusive: 12.6 µM [rising, partial curve]",–
COC(=O)c1ccccc1NC(=O)C1CCN(C(=O)c2cc(OC)c(OC)c(OC)c2)CC1,"inconclusive: 10 µM [rising, single point]",–
CC1(C(=O)NC2CCCCCC2)CCC(=O)N1Cc1ccc2c(c1)OCO2 (stereo unspecified),–,inconclusive: 3.63%
O=c1cc(Nc2ccc3c(c2)OCCO3)[nH]c(=O)n1-c1ccc(Cl)cc1,–,inconclusive: -18.7%
Cc1ccc(N2CC(c3nc4ccccc4[nH]3)CC2=O)c(C)c1 (stereo unspecified),–,inactive: 5.43%
O=C1c2oc3ccc(F)cc3c(=O)c2C(c2ccccc2)N1CC1CCCO1 (stereo unspecified),–,inconclusive: 1.16%

SMILES,Potency,"activity change, negative = inhibition"
Cc1noc(C)c1CSc1nc2[nH]ncc2c(=O)n1-c1ccccc1,active: 10 µM,–
COc1ccc(-c2noc(N(C)CC(=O)Nc3cccc(C(F)(F)F)c3)n2)cc1,–,inconclusive: 2.69%
CCOC(=O)CC(=O)CSC1=C(C#N)C(c2ccccc2OC)CC(=O)N1 (stereo unspecified),–,inactive: -0.703%
CC(C)CN(C(=O)c1ccc(=O)n(C)n1)c1nc2ccccc2s1,–,inactive: 3.57%
Nc1nc(N)c(N=Nc2ccc(C(=O)O)c(O)c2)c(N)n1,–,inconclusive: -29.9% [at 7.6 µM]
COc1ccc(CNC(=O)c2cnn3c(C(F)F)cc(C)nc23)cc1OC,"inconclusive: 12.6 µM [rising, partial curve]",–
COc1ccc(-c2nc3cnc(N4CCOCC4)nc3n(C3CC3)c2=O)cc1,active: 1.26 µM,–
Cc1cc2c(=O)n(Cc3ccco3)c(SCC(=O)N3CCCc4ccccc43)nc2s1,"inconclusive: 12.6 µM [rising, single point]",–
Cc1cccc(-n2nnc(C(=O)N3CCc4ccccc4C3)c2N)c1,–,inconclusive: 17.2%
O=C(CSc1nnc(C23CC4CC(CC(C4)C2)C3)o1)Nc1ccc(N2CCOCC2)c(Cl)c1,–,inactive: 5.6%
COCCn1nnnc1C(c1ccc(OC)cc1OC)N1CCN(c2ccccc2)CC1 (stereo unspecified),–,inactive: -4.72%
O=S1(=O)CCN=C2SC3=C(CCCC3)N21,"inconclusive: 5.01 µM [rising, single point]",–
CCN1CCCC1CNC(=O)c1nn(-c2ccc(C)cc2)c(=O)c2c1c1ccccc1n2C (stereo unspecified),–,inactive: 3.14%
CC(C)C(NS(=O)(=O)c1cccc2nsnc12)C(=O)N1CCc2ccccc2C1 (stereo unspecified),–,inactive: -22.7%
COc1cc(C(=O)Nc2cccc3ncccc23)cc(OC)c1OC,"inconclusive: 10 µM [rising, single point]",–
CCCc1nc2oc3c(NCC4CCCO4)ncnc3c2c2c1COC(C)(C)C2 (stereo unspecified),"inconclusive: 2 µM [rising, partial curve]",–
CCOC(=O)C1=C(C)N=C(/N=C/N(C)C)SC1c1ccccc1 (stereo unspecified),"inconclusive: 12.6 µM [rising, single point]",–
O=C(c1ccccc1)c1ccc(N2CCOCC2)c(NC(=O)c2ccco2)c1,"inconclusive: 10 µM [rising, partial curve]",–
